# Laboratory results taken from the supplement of paper PMC11417369.
# The other results are listed elsewhere or left out.
# Test system: PF3D7_0420300 AP2 domain 1 (GST-tagged)
# Test: gcPBM binding intensity (ln(normalized median fluorescence intensity)); higher = stronger DNA binding
# Method in brief: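 Each value is the highest Masliner-normalised natural-log median intensity across replicate spots of either orientation of a probe. The probes were primer-extended double-stranded 36-bp intergenic genomic sequences on an Agilent 4 × 180k array, alongside negative controls, exposed for 1 h to GST-tagged P. falciparum DNA-binding domains expressed in E. coli. Bound protein was picked up with Alexa488 anti-GST antibody and scanned at 488 nm.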
row,Sequence,gcPBM binding intensity (ln)
1,ATATATATATAATAAACACACAAATAGATATAACAT [CACACA_site3715],9.98
2,GTAATTTTGAGATGATGTACATATTTTTTCCTTGTC [XGTACX_site4103],9.22
3,TAAGATATATTTTTTTGTACACATAATAAAATAATA [XGTACX_site8938],9
4,GATAAATCATATATAACACACATATGAATATTACAA [CACACA_site1321],9.48
5,AAAAGAAACTTATTTACGCACACTTTATTGCATGTT [CACACA_site3887],9.31
6,ATAATGTAGAACTAGAGTACATAAAAAAATAAACAT [XGTACX_site5205],9.53
7,TTTTTTTTTTTTTTTTTTTGTCTTATATATTACGGA [CACACA_negctrl_site322],8.52
8,GCTACACAATTTTTTAGTACACACATATAAATATAT [XGTACX_site3131],9.63
9,TATATATTATCAAGTGGACACACGAAAAAAAGGAAA [CACACA_site3741],9.55
10,TTTTTCATATTATACTTTTATATACATATATAAAAA [XGTACX_negctrl_site281],8.97
11,TAAAGATTGTTCAGTGCATGTTGGCCTGTAAATGGA [TGCATGCA_site315],9.1
12,CAACATATGCATATGTGTACATATTTTATTTTCAAC [XGTACX_site2237],9.21
13,ACATACATATGTAAATGTACAAAATATCCATAGATT [XGTACX_site2782],9.42
14,ATATACTCATTAATAACACACAATATGATAACAAAT [CACACA_site5913],9.78
15,AATATATTTCATTTTTGTACACACAACGTTGGAGGG [XGTACX_site6461],9.76
16,ATGTTATATATGTATTGTACGTATTTTGTATATTAT [XGTACX_site6607],9.72
17,AGTGTTTTTTATAAAGTGCAATATAAAAACAAAATG,9.29
18,AATTTTTTTTTATTGTGTACTTATTTTTTTATATTT [XGTACX_site917],9.66
19,AAGAATAAAGAATGGTGTACATGCATATAAAATATT [XGTACX_site5707],9.63
20,TTTTATTTCATTTGTTGTACTTTCAAAATATTATTA [XGTACX_site2192],9.32
21,GATAAAACGTTATGCACACGTACGTGAGTATTTATA [CACACA_site1570],9.3
22,AATGATAAATAAAAAGCATGCAACAAATAAAAATAA [TGCATGCA_site453],9.62

row,Sequence,gcPBM binding intensity (ln)
1,AACAAAACTTTGGATACATGCAAAATTTTTAAATGA [TGCATGCA_site249],9.21
2,GTTTTTTTGTTTTAAAGTACTTAAAAAAAAAATATA [XGTACX_site6998],8.69
3,TATATATATTTATGCACACAAAATATATTATAGAAT [CACACA_site3740],9.31
4,AATGTTTATTTTGTTTGTACATAAAATGAATAAAAT [XGTACX_site1456],9.04
5,GTTATATATTTTTATGCATGCATTTTTAAATATATA [TGCATGCA_site175],9.28
6,TTTATATATATAAATATGTAGATAACAATATTCTGA [TGCATGCA_negctrl_site554],8.98
7,ATACATAAATTTTGTACACACAAAAAAAAAAAAGCT [CACACA_site1351],9.78
8,AAAATATACATATATGCATGCATATAAATAAAAAAA [TGCATGCA_site812],9.36
9,TTACAGATATTTATCTGTACATATATTTAAAAATAT [XGTACX_site7431],8.79
10,TAATTTTTTTAAAAGCGTACATTTAAAAAAAAATAT [XGTACX_site2736],8.76
11,AAAAGTAAAAAAAAAAAAAGTAAAAAAAAAAAAAAA [CACACA_negctrl_site389],8.7
12,TTTTTAAATTCTTTAATATGTTTTATATATCAAAAT [CACACA_negctrl_site75],8.92
13,TCTTATCATTTTAAATCACACACATATATATATATA [CACACA_site8925],9.52
14,ACTGTAATATTGAAAGTGCATTAAAGTGTATATTAT [GTGCAC_site9970],9.29
15,TTATTTTATTTAGGGTGTACCCAATTTTTCCATATG [XGTACX_site4957],9.07
16,ATTTATATTTATAAATGTACACATATATATTTCATT [XGTACX_site2723],9.26
17,AAAAATTTTTTACATCGTACAGATATATATAATAAA [XGTACX_site3331],9.01
18,TCTTTTAACACATGTGATATTATTTAATAACAATAA [CACACA_negctrl_site339],9.07
19,GGTATACACAAGTATACACACATATAAATATAAATA [CACACA_site7511],9.49
20,CTTTTATAATTCATATGTACTTATTTTTAACATAGG [XGTACX_site7808],9.15
21,TGTACATATATATATATATATGTTACTGAAATAAAA [CACACA_negctrl_site1658],9.1
22,AAGAATAACTTTTATACATGCAGCATAATATATTGT [TGCATGCA_site605],9.23
